# Test results from ChEMBL document CHEMBL4888484, “Replenishing the malaria drug discovery pipeline: Screening and hit evaluation of the MMV Hit Generation Library 1 (HGL1) against asexual blood stage Plasmodium falciparum ,using a nano luciferase reporter read-out” (2022).
# Out of some 150,000 compounds screened, about 540 (0.36%) showed an effect of 50% or more. This is one part of the list.
# System: Plasmodium falciparum
# Test: Primary screen in NF54 nanoGlo assay, in single point, at 2uM, 72h; a lower Z score goes with more inhibition
# Type: functional, Erythrocyte
# Conditions: timepoint 72 hour
SMILES,% Inhibition [%],Z score
O=C(COCc1cc(-c2ccco2)on1)NCc1ccc2c(c1)OCO2,2,-0.29
CCc1nnc(CNc2nc(C)ncc2CC)s1,-10,1.25
C[C@@H]1CN(CC(O)C(F)(F)F)CCN1C(=O)OC(C)(C)C (stereo not given in full),2,-0.39
CC(CC(=O)NC(C)c1ncon1)c1ccc(F)cc1F (stereo not given),-3,0.44
CC(C)(C)n1cc(C(=O)NCc2nnc[nH]2)cn1,-2,0.22
COCc1ccc(C(=O)N2CCc3[nH]c(-c4cccnc4)nc3C2)s1,-2,0.38
Cc1nc(C)n(CC2CCCCN2CC(O)CN2CCOCC2)n1 (stereo not given),-13,1.1
O=C1N[C@@H](C2CCCCC2)C(=O)N2CCC[C@H]12,-15,1.55
Cc1c(S(=O)(=O)N2CC(F)CC2CO)oc2ccc(F)cc12 (stereo not given),-18,1.82
Cn1nccc1-c1ccc(NC(=O)NC[C@H](O)C2CCCCC2)nn1,-7,1.26
O=C(NS(=O)(=O)[C@H]1CC2CCC1CC2)c1cncc2ccccc12,10,-1.8
CC1CN(c2nccn(C(F)F)c2=O)CC(C)[S+]1[O-] (stereo not given),-5,0.91
CN1CCOC[C@H]1C(=O)OC1CCCCCC1,-3,0.28
CCn1ncc(CNC(=O)N[C@H]2CCCc3nn(C)cc32)n1,4,-0.72
O=C(Cc1nnc(-c2ccc3ncccc3c2)o1)Nc1cccc(C(F)(F)F)c1,9,-0.92
CC(=O)Nc1nc(C)c(S(=O)(=O)N2[C@@H]3CC[C@H]2CNC(=O)C3)s1,-12,1.95
O=C(Cc1ccccc1Cl)N[C@H]1CCN(c2nccn3cnnc23)C1,-18,2.3
CC(C)c1ccc(C#N)c(N(C)Cc2nncn2C)n1,-7,0.87
Cn1ccc(CN2CCN(Cc3ccc4c(c3)CCO4)CC2)cc1=O,4,-0.79
CCCCOc1ccc(CN(C)C)cc1CN(C)C,-13,1.71
CCc1csc(N2CC(c3nc(C)cc(C)n3)C2)n1,2,-0.28
COc1cnc(CN(C)CCN2CCCCC2=O)cc1O,-11,1.42
CCc1cccc(N2C(=O)c3cc(C(=O)OC)nn3C[C@@]2(C)C(=O)NC2CCC(C)CC2)c1 (stereo not given in full),6,-0.7
CN(CCN1CCOC1=O)Cc1cnoc1-c1ccc(Cl)cc1,-16,3.1
Cc1ccccc1C(=O)N(CC(=O)N(Cc1ccc(F)cc1)Cc1sccc1C)C(C)C,2,-0.27
